From the RNAGym collection of RNA variant scans (doi:10.7554/elife.90254)
Read counts are not given, so values of variants with three or more changes are uncertain.

B1: LINE1-full (parent)
chain: UACGUAGGUGGUUUUCCCCUGAUAGUGCUAAGGGGGCCUGGAAGUUUGGACUGGGCAGAGCUCAACACAGCGUGGCAAAGUGGCUGUGGCUAGACUGCCUCUCUGGAUUCCUCGUCACUCAGCAGGGCAUCUCUGAGAGAAAUGCC

Variants of: B1
Test: self-cleavage, relative activity (ratio to wild type); higher = more cleavage; in vitro, sequencing; the parent is a self-cleaving ribozyme

Row | Variant | self-cleavage
1 | UACGUAGGUGGUUUCCCCCUGAUAGUGCUAAGGGGGCCUGGAAGUUUGGACUGGGCAGAGCUCAACACUGCGUGGCAAAGUGGCUGUGGCUAGACUGCCUCUCUGGAUUCCUCGUCACUCUGCAGGGCAUCUCUGAGAGAAAUGCC [U15C A69U A121U] | 0.13
2 | UACGUAGGUGGUUUCCCCCUGAUAGUGCUAAGGGGGCCUGGAAGUUUGGACUGGGCAGAGCUCAACACAGCGUGGCAAAGUGGCUGUGGCUAGACUGCCUCUCUGGAUUCCUCGUCGCUCAGCAGGGCAUCUCUGAGUGAAAUGCC [U15C A117G A138U] | 0.81
3 | UACGUAGGUGGUUUCCCCCUGAUAGUGCUAAGGGGGUCUGGGAGUUUGGACUGGGCAGAGCUCAACACAGCGUGGCAAAGUGGCUGUGGCUAGACUGCCUCUCUGGAUUCCUCGUCACUCAGCAGGGCAUCUCUGAGAGAAAUGCC [U15C C37U A42G] | 1.63
4 | UACGUAGGUGGUUUCCCCCUGAUAGUGCUAAGGGGGCCUGGAAGUUUGGACUGGGCAGAGCUCAACACAGCGUGGUAAAGUGGCUGUGGCUAGACUGCCUCUCUGGAUUCCUCGUCACUCAGCAGGGCACCUCUGAGAGAAAUGCC [U15C C76U U130C] | 2.64
5 | UACGUAGGUGGUUUCCCCUUGAUAGUGCUAAGGGGGCCUGGAAGUUUGGACUGGGCUGAGCUCAGCACAGCGUGGCAAAGUGGCUGUGGCUAGACUGCCUCUCAGGAUUCCUCGUCACUCAGCAGGGCAUCUCUGAGAGAAAUGCC [U15C C19U A57U A65G U104A] | 0.02
6 | UACGUAGGUGGUUUCCCCCUGAUAGUGCUAAGGGGGCCUGGAAGUUUGGACUGGGCAGAGCUCAACACAGCGUGGCAAAGUGGCUGUGGCUAGACUGCCUCUCUGGAUUCCUCGUCACUCUGCAGGGCAUCUCCGAGAGAAAUGCC [U15C A121U U134C] | 1.66
7 | UACGUAGGUGGUUUCUCCCUGAUAGUGCUAAGGGGGCCUGGAAGUUUGGACAGGGCAGAGCUCAACACAGCGUGGCAAAGUGGCUGUGGCUAGACUGCCUCUCUGGAUUCCUCGUCACUCAGCAGGGCAUCUCUGAGAGAAAUGCC [U15C C16U U52A] | 1.18
8 | UACGUAGGUGGUUUCCCCCUGAUAGUGCUAAGGGGGCCUGGAAGUUUGGACUGGGCAGAGCUCAACACAGCGUGGCUAAGUGGCUGUGGCUAGGCUGCCUCUCUGGAUUCCUCGUCACUCAGCAGGGCAUCCCAGAGGGAAAUGCC [U15C A77U A94G U132C U134A A138G] | 0.22
9 | UACGUAGGUGGUUUCCCCCUGAUAGUGCUAAGGGGGCCUGGAAGUUUGGACUGGGCAGAGCUCAACACAGCGUGGCAUAGUGGCUGUGGCUAGGCUGCCUCUCUGGAUUCCUCGUCACUCAGCAGGGCAUCUCUGAGAGAAGUGCC [U15C A78U A94G A142G] | 0.18
10 | UACGUAGGUGGUUUCCCCCUGAUAGUGCUAAGGGGGCCUGGAAGUUUGGACUGGGCAGAGCUCAACACAGCGUGGCAAAGUGGAUGUGGCUAGACUGCCUCUCUGGAUUCCCCGUCACUCAGCAGGGCAUCUCUGAGAGAAAUGCC [U15C C84A U112C] | 0.19
11 | UACGUAGGUGGUUUCCCCCUGAUAGUGCUAAGGGGGCCUGGAAGUUUGGACUGGGCAGAGCUCAACACAGCGUGGUAAAGUGGCUGUGGCUAGACUGCCUCUCUGGAUUCCUCGUCACUCAGCAGGGCAUCUCUGGGAGAAAUGCC [U15C C76U A136G] | 2.92
12 | UACGUAGGUGGUUUCCCCCUGAUAGUGCUAAGGGGGCCUGGAAGUUUGGACUGGGCAGAGCUCAACACUGCGUGGCAAAGUGGCUGUGGCUAGACUGCCUCUCUGGAUUCCUCGCCACUCAGCAGGGCAUCUCUGAGAGAAAUGCC [U15C A69U U115C] | 0.18
13 | UACGUAGGUGGUUUCCCCUUGAUAGUGCUAAGGGGGCCUGGAAGUUUGGACUGGGCAGAGCUCAACACAGCGUGGCAAAGUGGCUGUGGCUAGACUGCCUCUCUGGAUUCCUCGCCACUCAGCAGGGCAUCUCUGAGAGAAAUGCC [U15C C19U U115C] | 1.57
14 | UACGUAGGUGGUUUCCCCCUGAUAGUGCUAAGGGGGCCUGGAAGUUUGGACUGGGCAGAGCUCAACACAGCGUGGCUAGGUGGCUGUGGCUAGACUGCCUCUCUGGAUUCCUCGCCACUCAGCAGGGCAUCUCUGAGAGAAAUGCC [U15C A77U A79G U115C] | 2.84
15 | UACGUAGGUGGUUUCCCCCUGAUAGUGUUAGGGGGGCCUGGAAGUUUGGACUGGGCAGAGCUCAACACAGCGUGGCAAAGUGGCUGUGGCUAGACAGCCUCUCUGGAUUCCUCGUCACUCAGCAGGGCAUCUCUGAGAGAAAUGUC [U15C C28U A31G U96A C145U] | 0.15
16 | UACGUAGGUGGUUUCCCCCUGAUAGUGCUAAGGGGGGCUGGAAGUUUGGACUGGGCAGAGCUCAACACAGCGUGGCAAAGUGGCUGUGACUAGACUGCCUCUCUGGAUUCCUCGUCACUCAGCAGGGCAUCUCUGAGAGAAAUGCC [U15C C37G G89A] | 0.09
17 | UACGUAGGUGGUUUCCCCCUGAUAGUGCUAAGGGGGCCUGGAAGUUUGGACUGGGCAGAGCUCAACACAGCGUGGCAAAGUGGCUGUGGUUAGACUGCUUCUCUGGAUUCCUCGUCACUCAGCAGGGCAUCUCUGAGAGAAAUGCC [U15C C90U C99U] | 0.05
18 | UACGUAGGUGGUUUCCCCCUGAUAGUGCUAAGGGGGCCUGGAAGUUUGGACUGGGCAGAGCUCAACACAGCGUGGCGAAGUGGCUGUGGCUAGACUGCCUCUCUGGAUUCCUCGUCACUCAGCAGGGCAUCUCUGGGAGAAAUGCC [U15C A77G A136G] | 1.91
19 | UACGUAGGUGGUUUCCCCCUGAUAGUGCUAAGGGGGCCUGGAAGUUUGGACUGGGCAGAGCUCAACACAGCGUGGCAAAGUGGCUGUGGCUAGACUGCCUCUCUGGAUUCCUCGUCACUCAGCGGGGCAACUCUGGGAGAAAUGCC [U15C A124G U130A A136G] | 2.71
20 | UACGUAGGUGGUUUCCCCCUGAUAGUGCUAAGGGGGCCUGGAAGUUUGGACUGGGCAGAGCUCAACACAGAGUGGCAAAGUGGCUGUGGCUAGACUGCCUCUCUGGAUUCCUCGUCACUCAGCAUGGCAUCUCUGAGAGAAGUGCC [U15C C71A G125U A142G] | 0.09

Row | Variant | self-cleavage
21 | UACGUAGGUGGUUUCCCCCUGAUAGUGCUAAGGGGGCCUGGAAGUUUGGACUGGGCAGAGCUCAACACAGCGUGGCAAGGAGGCUGUGGCUAGACUGCCUCUCUGGAUUCCUCGUCACUCAGCAGGGCAUCUCUGAGAGAAAUGCC [U15C A79G U81A] | 2.27
22 | UACGUAGGUGGUUUCCCUCUGAUAGUGCUAAGGGGGCCUGGAAGUUUGGACUGGGCAGGGCUCAACACAGCGUGGCAAAGUGGCUGUGGCUAGACUGCCUCUCUGGAUUCCUCGACACUCAGCAGGGCAUCUCUGAGAGAAAUGCC [U15C C18U A59G U115A] | 0.29
23 | UACGUAGGUGGUUUCCCCCUGAUAGUGCUAAGGGGGCCUGGAAGUUUGGAUUGGGCAGAGCUCAACACAGCGUGGCAAAGUGGCUGUGGCUAGACUGCCUCUCUGGAUUCCUCGUCACUCGGCAGGGCAUCUCUGAGAGAAACGCC [U15C C51U A121G U143C] | 1.43
24 | UACGUAGGUGGUUUCCUCCUGAUAGUGCUAAGUGGGCCUGGAAGUUUGGGCUGGGCAGAGCUCAACACAGCGUGGCAAGGUGGCUGUGGCUAGACUGCCUCUCUGGAUUCCUCGCCACUCAGCAGGGCAUCUCUGAGAGAAAUGCC [U15C C17U G33U A50G A79G U115C] | 0
25 | UACGUAGGUGGUUUCCCCCUGAUAGUGCUAAGGGGGCCUGGAAGUUUGGACUGGGCAGAGCUCAACACAGCGUGGCAAAGUGGCUGUGGCUAGACUGCCUCUCUGGAUUCCUCGUCACUCUGCAGGGCAACUCUGAGAGAAAUGCC [U15C A121U U130A] | 1.44
26 | UACGUAGGUGGUUUCCCCCUGAUAGUGCUAAGGGGGCCUGGAAGUUUGGACUGGGCAGAGCUCAACACAGCGUGGCAAAGUGGCUGUGGCUAGACUGCCUCUCUGGAUUCCUCGUCACUCAGCGGGGCAUCUCUGAGAGAAGUGCC [U15C A124G A142G] | 1.11
27 | UACGUAGGUGGUUUCCCCCUGAUAGUGCUAAGGGGGCCUGGAAGUUUGGACUGGGCAGAGCUCAACACAGCGUGGCAAAGUGGCUGUGGCUAGGCUGCCUCACUGGAUUCCUCGUCACUCAGCAGGGCAUCUCUGAGAGAAAUGCC [U15C A94G U102A] | 0.2
28 | UACGUAGGUGGUUUCCCCCUGAUAGUGCUAAGGGGGCCUGGAAGUUUGGACUGGGCAGAGCUCAACACAGCGUGGCAAAGUGGCUGUGGCUAGACUGCCUUUCUGGAUUCCUCGUCACUCAGCAGGGCAUCUCUGAGAGAGAUGCG [U15C C101U A141G C146G] | 1.1
29 | UACGUAGGUGGUUUCCCCCUGAUAGUGCUAAGGGGGCCUGGAAGUUUGGACUGGGCAGAGCUCAACACAGUGUGGCAAAGUGGCUGUGGCUAGUCUGCCUCUCUGGAUUCCUCGUCACUCAGCAGGGCAUCUCUGAGGGAAAUGCC [U15C C71U A94U A138G] | 0.1
30 | UACGUAGGUGGUUUCCCCCUGAUAGUGCUAAGGGGGCCUGGAAGUUUGGACUGGGCAGAGCUCAACACAGCGUGGCAAGGUGGCUGCGGCUAGACUGCCUCUCUGGAUUCCUCGUCACUCAGCAGAGCGUCUCUGGGAGAAAUGCC [U15C A79G U87C G126A A129G A136G] | 0
31 | UACGUAGGUGGUUUCCCCCUGAUAGUGUUAAGGGGGCCUGGAAGUUUGGACUGGGCAAAGCUCAACGCAGCGUGGCAAAGUGGCUGUGGCUAGACUGCCUCUCUGGAUUCCUCGUCACUCAGCAGGGCAUCUCCGAGAGAAAUGCC [U15C C28U G58A A67G U134C] | 0
32 | UACGUAGGUGGUUUCCCCCUGAUAGUGCUAAGGGGGCCUGGAAGUUUGGACUGGGCAGAGCUCAACACGGCGUGGCAAAGUGGCUGUGGCUAGACUGCCUCUCUGGAUUCCUCGUCACUCAGCAGGGCAUCUCGGAGAGAAAUGCC [U15C A69G U134G] | 2.04
33 | UACGUAGGUGGUUUCCCCCUGAUAAUGCUAAGGGGGCCUGGGAGUUUGGACUGGGCAGAGCUCAACACAGCGUGGCAAAGUGGCUGUGGCUAGACUGCCUCUCUGGAUUCCUCGCCACUCAGCAGGGCAUCUCUGAGAGAAAUGCC [U15C G25A A42G U115C] | 0.78
34 | UACGUAGGUGGUUUCCCCCUGAUAGUGCUAAGGGGGCCUGGAAGUUUGGACUGGGCAGAGCUCAACACAGCGUGGCAAAGUGGCUGUGGCUAGGCUGCCUCUCUGGAUUCCUCGUCACUCAGCAGGGCAUCUCUGAGAGAAACGCC [U15C A94G U143C] | 0.32
35 | UACGUAGGUGGUUUCCCCCUGAUAGUGCUAAGGGGGCCUGGAAGUUUGGACUGGGCAGAGCUCAACACAGCGUGGCAAGGUGGCUGUGGCAAGACUGCCUCUCUGGAUUCCUCGUCACUCAGCAGGGCAUCUCUGAGAGAAAUGCC [U15C A79G U91A] | 1.33
36 | UACGUAGGUGGUUUCCCCCUGAUAGUGCUAAGGGGGCCUGGAAGUUUGGACUGGGCAGAGCUCAACACAGCGUGGCAAAGUGGCUGUGGCUAGACUGCCUCUCUGGAUUCCUCGUCACUCAGCAGGGCAUCUCUGAGAGUAGUGCC [U15C A140U A142G] | 0.64
37 | UACGUAGGUGGUUUCCCCCUGAUAGUGCUAAGGGGGCCUGGAAGUUUGGACUGGGCAGAGCUCAACACUGCGCGGCAAAGUGGCUGUGGCUAGACUGCCUCUCUGGAUUCCUCGUCACUCAGCAGGGCAUCUCUGGGAGAAAUGCC [U15C A69U U73C A136G] | 0
38 | UACGUAGGUGGUUUCCCCCUGAUAGUGCUAAGGGGGCCUGGAAGUUUGGACUGGGCAGAGCUCAACACAGCGUGGCAAAGUGGCUGUGGCUAGACUGCCUCUCUGGAUUCCUCGUCACUCGGCAGGGCAUCUCUGAGGGAAAUGCC [U15C A121G A138G] | 2.48
39 | UACGUAGGUGGUUUCCCCCUGAUAGUGCUAAGGGGGCCUGGAAGUUUGGACUGGGCAGAGCUCAACACGGCGUGACAAAGUGGCUGUGGCUAGACUGCCUCUCUGGAUUCCUCGUCACUCAGCAGGGCAUCUCUGAGAGAAAUGCC [U15C A69G G75A] | 0.23
